Measured values: the supplement of paper PMC11417369
± gives the standard deviation of the averaged measurements. Some of the results follow.

Each sequence was assayed on PfAP2-LT AP2 domain (GST-tagged) (assay: gcPBM binding intensity (ln(normalized median fluorescence intensity)); higher = stronger DNA binding).
In short: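 GST-fused DNA-binding domains of P. falciparum, expressed in E. coli, were applied at about 25 μg on average for 1 h to an Agilent 4 × 180k array of primer-extended double-stranded 36-bp intergenic genomic probes and negative controls. Binding intensity is the highest Masliner-normalised natural-log median intensity across replicate spots of either probe orientation, measured with Alexa488 anti-GST antibody and a 488 nm scan.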
With “TTAATTATGTTTTGGTGTACAATAAATTGAATAGAT [XGTACX_site3306]” the “gcPBM binding intensity (ln)” value was 8.52 ± 0.49.
With “CTTTTTGAAATATTAACACACATTTTGTTAATTAAT [CACACA_site4046]” the “gcPBM binding intensity (ln)” value was 8.73 ± 0.4.
In the case of “CACAGATAAATTAACACACACACACCCATATATATA [CACACA_site3960]”, the “gcPBM binding intensity (ln)” value is reported as 10.05 ± 0.071.
“ATAATATAACACAAATGTACAAAAAATAAATAAATA [XGTACX_site385]” was tested, and the “gcPBM binding intensity (ln)” value was 8.94 ± 0.4.
“CATACTCACCAACACACACACACACCCATATAGAAT [CACACA_site592]” was tested, and the “gcPBM binding intensity (ln)” value was 10.2 ± 0.28.
“TATATATATACTTAATGTACATATATATATATATAT [XGTACX_site3102]” was tested, and the “gcPBM binding intensity (ln)” value was 9.215 ± 0.064.
For “GAAAACGTTTGAAGTTGTACATATGTATAAAAAGAA [XGTACX_site2304]”, the “gcPBM binding intensity (ln)” value was 9.02 ± 0.54.
For “ATAAAAATACAGTTAACACACATGTGTATTTATATG [CACACA_site7727]”, the “gcPBM binding intensity (ln)” value was 9.24 ± 0.3.
“TGTTATTTAAATAATTCTTTTTAAAAGATGAATTAT [CACACA_negctrl_site1226]” was tested, and the “gcPBM binding intensity (ln)” value was 8.08 ± 0.44.
For “ATGGTCTGTTAAAGATGTACTTTTTAAAAATAAACG [XGTACX_site2583]”, the “gcPBM binding intensity (ln)” value was 8.36 ± 0.39.
In the case of “AAAAGGAAGATATATACACACATACAAATATATATA [CACACA_site5236]”, the “gcPBM binding intensity (ln)” value is reported as 9.3 ± 0.45.
For CTATTTGGGGGAAGAGTGCATGACATGAATATAAAA, the “gcPBM binding intensity (ln)” value was 8.94 ± 0.23.
For “TTGATGTATACAATGTAGATTATTTAATATTTCAAC [CACACA_negctrl_site73]”, the “gcPBM binding intensity (ln)” value was 8.6 ± 0.49.
In the case of “ATTAGTATTAGATGATGTACATTTATATTGAAATAT [XGTACX_site8537]”, the “gcPBM binding intensity (ln)” value is reported as 8.63 ± 0.44.
“CTATATTATAAATATACACACATATCTTAAGTATAA [CACACA_site3096]” was tested, and the “gcPBM binding intensity (ln)” value was 8.79 ± 0.29.
“ATAAATTTTTAAAAATATGAATTATGTAATTTGTGA [CACACA_negctrl_site1621]” was tested, and the “gcPBM binding intensity (ln)” value was 8.42 ± 0.49.
For “TTTTTTTTTTTTTTCACACACTAATAATATTATCAT [CACACA_site4417]”, the “gcPBM binding intensity (ln)” value was 8.85 ± 0.42.
“TATATATATATTTTTGCACACATTTTTTAAGGTACA [CACACA_site2145]” was tested, and the “gcPBM binding intensity (ln)” value was 9.26 ± 0.34.
For “TTTATATGATACACACGTACATATACACATATACAC [XGTACX_site8123]”, the “gcPBM binding intensity (ln)” value was 9.28 ± 0.24.
With “CATATAATAAATAGATGTACAGACTATATATATATA [XGTACX_site6575]” the “gcPBM binding intensity (ln)” value was 9.46 ± 0.3.
With “TATAATATTTATATAACACACATATAGATTTATTTA [CACACA_site6269]” the “gcPBM binding intensity (ln)” value was 8.57 ± 0.42.
In the case of “AATAGGAAAGATTTTGCATGTGATATAAGTAATTTT [TGCATGCA_site657]”, the “gcPBM binding intensity (ln)” value is reported as 8.62 ± 0.49.
For “ATGTAAAATTAATATTGTACTTTTCCATCATGATAC [XGTACX_site2669]”, the “gcPBM binding intensity (ln)” value was 8.73 ± 0.49.
For “TATTATTTAATCAAATGTACATAGAAAATGTATGTA [XGTACX_site4433]”, the “gcPBM binding intensity (ln)” value was 8.54 ± 0.46.
With “TATATTAAAGGGGTTTCACACACATGTATAATTAAT [CACACA_site7950]” the “gcPBM binding intensity (ln)” value was 9.11 ± 0.4.
“AAAAAAAAAAAAAAAAGTACAAATAAAAAAAAAATA [XGTACX_site4814]” was tested, and the “gcPBM binding intensity (ln)” value was 8.62 ± 0.7.
With “TTGTTAATGGTACGAACACACATATAAAGATGCATA [CACACA_site2044]” the “gcPBM binding intensity (ln)” value was 8.94 ± 0.42.
In the case of “TTATTCACTTCTTTTTAAAAAAAAAAAAAAAAAAAA [CACACA_negctrl_site223]”, the “gcPBM binding intensity (ln)” value is reported as 7.88 ± 0.34.
With “ATAATTTGTGGACACACACACACACCGACATATATA [CACACA_site8718]” the “gcPBM binding intensity (ln)” value was 9.97 ± 0.33.
“TTATATGAATTTTAGATTTATAATACAAGAATATTC [CACACA_negctrl_site70]” was tested, and the “gcPBM binding intensity (ln)” value was 8.2 ± 0.39.
With “ATTTCGAATATTAAGTGTACAATATAAATATATAAA [XGTACX_site6674]” the “gcPBM binding intensity (ln)” value was 8.63 ± 0.35.
“ATATTATATAATATACGTACATATATTATGCATAAA [XGTACX_site7895]” was tested, and the “gcPBM binding intensity (ln)” value was 8.78 ± 0.35.
For “ATTAAATACATTAACACACACACAAATATGTACATA [CACACA_site7372]”, the “gcPBM binding intensity (ln)” value was 9.68 ± 0.26.
For “TACGTAGCCACACTAACACACACAAATATGCACAAT [CACACA_site8942]”, the “gcPBM binding intensity (ln)” value was 9.54 ± 0.39.
For “TTTTTTTCTGTGAGTGCATGTAATAAAATAAATTTA [TGCATGCA_site276]”, the “gcPBM binding intensity (ln)” value was 8.2 ± 0.29.
“TGTTATTTTAAAAAAAAAATTATTAACTTAAAAAAA [CACACA_negctrl_site1641]” was tested, and the “gcPBM binding intensity (ln)” value was 7.87 ± 0.42.
For “TTCAAAAATATATAATGTACACAAATATAAAAGAAT [XGTACX_site1944]”, the “gcPBM binding intensity (ln)” value was 8.93 ± 0.38.
With “ATCATAATCATAAAAAGTACAAACGATAAAATAAAT [XGTACX_site3832]” the “gcPBM binding intensity (ln)” value was 9.13 ± 0.37.
For “TTACTTAAGAAACACACACACAAAAAAAAAAAAAAA [CACACA_site946]”, the “gcPBM binding intensity (ln)” value was 9.32 ± 0.39.
In the case of “TATGTAAAAAATTTAACACACACATATATATATATA [CACACA_site8829]”, the “gcPBM binding intensity (ln)” value is reported as 9.6 ± 0.24.
“TATTATTCATAATTTATCTTTTAAATTAAATCACAA [GTGCAC_negctrl_site288]” was tested, and the “gcPBM binding intensity (ln)” value was 8.03 ± 0.38.
For “TATTTATAATAGTGTACACAATTATAAACTGAATAT [CACACA_site6041]”, the “gcPBM binding intensity (ln)” value was 8.77 ± 0.42.
With “CAACATATATTAATATGTACATATATATAGATATAT [XGTACX_site4107]” the “gcPBM binding intensity (ln)” value was 8.81 ± 0.44.
With “AATTAAATTAGAAGCACACACATATTTATATTTATA [CACACA_site7552]” the “gcPBM binding intensity (ln)” value was 9.08 ± 0.35.
With “ATACACTCACTCACACGTACAGACAACGGACGATCA [XGTACX_site1097]” the “gcPBM binding intensity (ln)” value was 9.09 ± 0.4.
